About 10 (0.005%) of roughly 200,000 compounds were called active. Inconclusive results, whose numbers are uncertain, are shown with a selection of clear calls. The call rests on the fitted dose curve; in most records, active means well fitted inhibition curve with a large enough effect; inconclusive means small, poorly fitted or top-dose-only effect, or effect the other way, or another doubt; inactive means no such curve, though single readings can be large or run the other way. A potency beside an inconclusive call is a rough fit, not a confirmed value.
Target: Lysosomal alpha-glucosidase (Homo sapiens) (UniProt P10253)
Assay: qHTS Assay for Inhibitors of Human alpha-Glucosidase as a Potential Chaperone Treatment of Pompe Disease;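 on activity change, negative = inhibition: plate controls were uninhibited enzyme wells for no effect and no-enzyme background for full effect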
Conditions: purified human GAA, 4-MU-alpha-glucoside fluorescence; activity change, negative = inhibition: at 76.9 µM (top of the series) unless noted
Outline: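 qHTS format, compound range up to 77 uM. Human lysosomal enzyme at 4 nM, 400 uM 4-MU glucoside substrate, pH 5.0, 20 min room temperature; fluorescence after alkaline stop gives activity normalized to controls.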
Potency means the concentration at half of the fitted maximal effect; tags describe the fitted curve by direction and shape.

Potency, inconclusive:
O=C(COC(=O)c1ccccc1Br)Nc1ccccc1F 56.2 µM [inhibitor, single point]
COc1ccc(-c2cc(C(F)(F)F)n3nc(C(=O)NCCN4CCOCC4)cc3n2)cc1 44.7 µM [activator, partial curve]
CCCOc1ccc(N2CC(C(=O)Nc3ccccc3C(=O)NCc3ccco3)CC2=O)cc1 (stereo not given) 50.1 µM [inhibitor, partial curve]
COc1ccccc1/C=C/C=N/NC(=O)CN1CCN(S(=O)(=O)c2ccc(C)cc2)CC1 22.4 µM [inhibitor, single point]
CCCn1nnnc1NC(=O)CSc1ccc(Cl)cc1 11.2 µM [inhibitor, single point]
CC1=C(C#N)C(/C=N/OCc2ccc(F)cc2Cl)CC(=O)N1 (stereo not given) 44.7 µM [activator, single point]
CNC(=O)c1ccsc1NC(=O)c1ccc(S(=O)(=O)N2CCOCC2)cc1 14.1 µM [inhibitor, partial curve]
COc1ccc(-c2nnn(Cc3nc(N)nc(N4CCCCC4)n3)n2)cc1 14.1 µM [inhibitor, partial curve]
O=C(COC(=O)c1c2c(nc3ccccc13)CCCC2)Nc1ccc2c(c1)OCO2 44.7 µM [inhibitor, single point]
O=C(CCC(=O)c1cccs1)OCC(=O)c1ccc(Cl)s1 20 µM [inhibitor, partial curve]
Cc1nc2cc(NC(=O)N(C)c3ccc4ccccc4c3)ccc2o1 56.2 µM [inhibitor, single point]
CC1Cc2nc(SCC(=O)N3CCc4ccccc43)n(C)c(=O)c2S1 (stereo not given) 12.6 µM [inhibitor, partial curve, poor fit]
Cc1[nH]c2ccccc2c1/C=C(/C#N)C(=O)NC(C)C 31.6 µM [inhibitor, single point]
COc1cc(/C=N/Nc2cccc3cccnc23)cc(OC)c1O 56.2 µM [inhibitor, single point]
O=S(=O)(NCCCc1ccccc1)c1ccc(Cl)cc1 50.1 µM [inhibitor, single point]
COCc1cc(C)nc(SCC[N+](C)(C)CC(=O)Nc2cccc(C(F)(F)F)c2)c1C#N 44.7 µM [inhibitor, single point]
Cc1nnc(NC(=O)CCCOc2ccccc2)s1 56.2 µM [inhibitor, single point]
Cc1cc(CN2CCCC(CNC(=O)c3ccc(F)cc3)C2)cc(C)c1O (stereo not given) 31.6 µM [inhibitor, single point]
CC(=O)N1CCN(c2ccc(S(=O)(=O)N3CCCCC3)cn2)CC1 11.2 µM [inhibitor, single point]
CC(=O)NCc1ccc(S(=O)(=O)NC(C(=O)O)C(C)C)cc1 (stereo not given) 11.2 µM [inhibitor, single point]
Cc1ccc(S(=O)(=O)N(c2nc(NC(C)C)nc(NC(C)C)n2)n2cnnc2)cc1 44.7 µM [inhibitor, single point]
COC(=O)CSc1nc2ccccn2c(=O)c1C=O 44.7 µM [activator, partial curve, poor fit]
COc1ccc(C)cc1-n1nnnc1SC/C(O)=C(\C#N)c1nc2ccccc2[nH]1 56.2 µM [inhibitor, single point]
Cc1ccc(N(CC(=O)Nc2cc(Cl)ccc2Oc2ccccc2)S(C)(=O)=O)c(C)c1 1.26 µM [inhibitor, full curve, poor fit]
Cc1cc2c(c(N)n1)c(=O)oc1ccccc12 35.5 µM [activator, single point]
COCCCNC(=S)NNC(=O)c1ccccc1Br 6.31 µM [activator, partial curve, poor fit]
CCC(C)n1c(/C=C/c2ccccc2)nc2ccccc21 (stereo not given) 56.2 µM [activator, single point]
CCn1c(SCC(=O)N2CCc3ccccc32)nnc1-c1c[nH]c2ccccc12 7.08 µM [inhibitor, partial curve]
CCCc1ccc(C(=O)NNC(=O)c2ccc(Cl)cc2)cc1 5.01 µM [activator, full curve]
CN(C(=O)NC(=O)C1=C(N2CCOCC2)/C(=C/c2ccccc2)CC1)S(C)(=O)=O 39.8 µM [activator, partial curve]
CCc1nnc(NC(=O)CC(CN(C)S(=O)(=O)c2ccccc2)c2ccccc2)s1 (stereo not given) 50.1 µM [inhibitor, single point]
CN=c1sc2ccccc2n1CC(O)COCc1ccco1 (stereo not given) 12.6 µM [inhibitor, single point]
CC(C)C(=O)Nc1cccc(C(=O)OCC(=O)c2ccc(Cl)cc2Cl)c1 11.2 µM [inhibitor, single point]
Cc1ccc(S(=O)(=O)N(C)c2cc(S(=O)(=O)Nc3ccncc3)c(C)cc2C)cc1 31.6 µM [inhibitor, single point]
Cn1c(SCc2ccc(Cl)cc2)nnc1C1CC1 56.2 µM [activator, partial curve]
COc1cccc(C2C(C(=O)Nc3nc4ccccc4s3)=C(C)NC3=C2C(=O)CC(C)(C)C3)c1OC (stereo not given) 39.8 µM [activator, partial curve]
CNC(=O)NC(=O)C(C)N1CCN(C/C=C/c2ccccc2)CC1 (stereo not given) 50.1 µM [inhibitor, single point]
CCOC(=O)COc1ccc2nsnc2c1 50.1 µM [inhibitor, single point]
CC(C)OC(=O)c1nnn(-c2nonc2N)c1CN1CCCCCC1 11.2 µM [inhibitor, single point]
Cc1ccc(CNc2oc(-c3cccs3)nc2C#N)cc1 44.7 µM [activator, partial curve]
Cc1ccc(-c2nnc(N3CC(C)OC(C)C3)c3ccccc23)cc1 (stereo not given) 12.6 µM [inhibitor, single point]
O=C(NNc1c2ccccc2nc2ccccc12)c1cc2ccccc2cc1O 50.1 µM [inhibitor, single point]
CCOc1cc(C2CC(=O)NC3=C2C(=O)C(C(=O)OC)C(C)C3)cc(Br)c1O (stereo not given) 44.7 µM [inhibitor, single point]
O=C1CCCC2=C1C(c1cccc(O)c1)C1=C(N2)c2ccccc2C1=O (stereo not given) 50.1 µM [inhibitor, single point]
CC(=O)Nc1ccc(NC(=O)CCC(=O)NCCO)cc1 20 µM [inhibitor, partial curve, poor fit]

Activity change, negative = inhibition, inconclusive:
COc1cc2cc(CN(CCO)S(=O)(=O)c3ccccc3)c(=O)[nH]c2cc1OC 15.2% [activator]
CCOc1ccc(Nc2nc(N3CCCC3)nc(N3CCN(c4ccc(OC)cc4)CC3)n2)cc1 -19.2% [inhibitor]
O=C1/C(=C2/NCCN2C2CC(=O)N(c3ccccc3)C2=O)CC/C1=C\c1ccccc1 (stereo not given) -18.1% [inhibitor]
O=C1C=C(N2CCCCC2)C2(CCCCC2)O1 15.8% [activator]
O=C1NCCCc2c1oc1cc(Br)c(O)c(Br)c21 17.2% [activator]
CCc1cccc(NC(=O)CCc2nc(-c3cccs3)no2)c1 -15.7% [inhibitor]
C=CCc1cc(/C=C/c2nc(O)c([N+](=O)[O-])c(=O)[nH]2)cc(OC)c1O -16.4% [inhibitor]
Cc1ccc(NC(=O)CN2C(=O)S/C(=C\c3ccc(-c4cccc(C(=O)O)c4C)o3)C2=O)cc1C -16.2% [inhibitor]
COc1cccc(-c2nn(-c3ccccc3)cc2CNC(C)Cn2cncn2)c1 (stereo not given) 17.1% [activator]
O=C(c1ccccc1)N1CCN(C2CC3CCC2C3)CC1 (stereo not given) -15.9% [inhibitor]
O=C(CC1C(=O)NCCN1CC1CCCCC1)NCc1ccc(F)cc1 (stereo not given) 6.64% [activator]
O=C(Cn1cnc2cc([N+](=O)[O-])ccc2c1=O)NCCc1ccc(Cl)cc1 16.6% [activator]
Cn1c(=O)n(C)c2cc([N+](=O)[O-])c(N3CCN(S(C)(=O)=O)CC3)cc21 -20.4% [inhibitor]
CCN1CCN(C2=CC3=CC(=C(C#N)C#N)CCC3CC2)CC1 (stereo not given) -18.6% [inhibitor]
COCCNC(=O)CN(C(=O)Cn1nnc2ccccc21)c1ccccc1C 18.6% [activator]

Activity change, negative = inhibition, inactive:
CC(CCc1ccccc1)NC(=O)CN1CCN(Cc2ccccc2)C1=O (stereo not given) 5.14%
COC(=O)c1nn(-c2ccc(OC)cc2)c(=O)cc1Sc1ccc(C)cc1 -2.52%
C=CCN=C1NN=C(c2cc(C)n(CCOC)c2C)CS1 -0.738%
COc1ccc(NCc2ccc([N+](=O)[O-])s2)c(OC)c1 -5.3%
CCc1ccc(O)c(N=Cc2ccccc2O)c1 -2.57%

— PubChem BioAssay AID1466 (National Center for Advancing Translational Sciences (NCATS), 2008)
